According to publication PMC4336329 (PLoS ONE, 2015):
The campaign covered roughly 310,000 compounds. About 14,000 (4.5%) showed an effect of 50% or more. The effect is printed as a negative number. The list shows a part of the results.

Target: human ether-à-go-go-related gene (hERG) potassium channel (human, UniProt Q12809)
Experiment: primary screen, population patch clamp on CHO cells stably expressing hERG
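Note: peak tail current of the secondary pulse compared with the same well before compound.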

Chain of human ether-à-go-go-related gene (hERG) potassium channel (Q12809 whole entry, looked up): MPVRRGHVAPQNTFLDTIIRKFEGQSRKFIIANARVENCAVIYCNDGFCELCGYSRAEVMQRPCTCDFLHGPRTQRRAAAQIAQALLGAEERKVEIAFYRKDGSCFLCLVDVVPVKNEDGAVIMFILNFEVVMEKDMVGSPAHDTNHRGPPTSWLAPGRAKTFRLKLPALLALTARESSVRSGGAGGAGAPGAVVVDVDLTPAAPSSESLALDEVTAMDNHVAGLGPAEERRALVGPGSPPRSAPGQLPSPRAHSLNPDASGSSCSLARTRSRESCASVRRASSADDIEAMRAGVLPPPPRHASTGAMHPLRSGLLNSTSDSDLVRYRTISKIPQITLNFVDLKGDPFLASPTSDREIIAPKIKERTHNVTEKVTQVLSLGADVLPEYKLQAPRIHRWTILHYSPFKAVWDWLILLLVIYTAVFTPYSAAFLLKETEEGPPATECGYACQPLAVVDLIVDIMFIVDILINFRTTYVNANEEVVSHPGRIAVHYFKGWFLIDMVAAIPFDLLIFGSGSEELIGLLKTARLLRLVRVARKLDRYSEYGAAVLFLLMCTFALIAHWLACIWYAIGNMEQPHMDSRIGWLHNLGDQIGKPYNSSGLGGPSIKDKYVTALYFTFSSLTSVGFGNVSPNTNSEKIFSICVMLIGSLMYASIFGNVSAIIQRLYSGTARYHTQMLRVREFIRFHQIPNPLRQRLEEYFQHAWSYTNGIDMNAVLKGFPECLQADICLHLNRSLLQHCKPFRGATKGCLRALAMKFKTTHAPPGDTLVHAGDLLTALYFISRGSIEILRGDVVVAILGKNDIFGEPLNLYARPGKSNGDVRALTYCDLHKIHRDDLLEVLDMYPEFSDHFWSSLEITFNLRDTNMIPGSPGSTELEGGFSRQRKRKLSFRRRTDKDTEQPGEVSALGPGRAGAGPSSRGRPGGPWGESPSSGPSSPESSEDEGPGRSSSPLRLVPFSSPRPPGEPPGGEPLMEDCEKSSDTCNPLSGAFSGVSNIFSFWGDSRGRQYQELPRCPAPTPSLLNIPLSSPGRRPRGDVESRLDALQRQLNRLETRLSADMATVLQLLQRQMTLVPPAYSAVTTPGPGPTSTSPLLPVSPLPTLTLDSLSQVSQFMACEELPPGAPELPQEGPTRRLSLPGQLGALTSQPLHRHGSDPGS

| Compound | hERG current change (%, negative = inhibition) at 10uM [%] |
| --- | --- |
| COc1ccc(C(Sc2ccccc2)c2ccccc2)cc1OC (centres unmarked) | 7.26 |
| CCC(C)(C)NC(=O)CN(C(=O)C(=O)Nc1ccc2c(c1)OCCO2)N1CCOCC1 | -2.68 |
| COc1cccc(NC(=O)C(Sc2nnnn2C)c2ccccc2)c1 (centres unmarked) | 19 |
| Cc1onc(-c2ccccc2Cl)c1C(=O)Nc1nc2ccc(S(C)(=O)=O)cc2s1 | -2.5 |
| Cc1cc(C)n(-c2nc(NCCCN(C)C)c3c4c(sc3n2)CCCC4)n1 | -65.2 |
| O=C(Nc1ccccc1)c1ccc(NCC2CCCO2)c(S(=O)(=O)N2CCOCC2)c1 (centres unmarked) | 11.2 |
| O=c1[nH]c(SCc2ccccc2Cl)nc2c1cnn2-c1ccccc1 | 16.9 |
| O=C(NCC1(c2ccccc2)CCCC1)c1ccc(Br)o1 | 1.9 |
| Cn1c(=O)n(C)c2cc([N+](=O)[O-])c(N3CCN(C(=O)c4ccc(F)cc4)CC3)cc21 | -44 |
| CCO[C@H]1OC(C(=O)NCc2ccccc2)=C[C@@H](c2ccc(C(F)(F)F)cc2)[C@@H]1CCCO | -31.5 |
| CCNC(=O)C1CCCc2c1[nH]c1ccc(Cl)cc21 (centres unmarked) | 16.3 |
| COc1ccc(N=C2S/C(=C\c3ccc(C)o3)C(=O)N2CC(C)C)cc1 | 8.37 |
| COc1ccc(C(C)=O)cc1COC(=O)CNC(=O)c1ccc(Cl)cc1 | -4.06 |
| COc1ccc(NC(=O)NC2(C(=O)N3CCCCCC3)CCCCC2)cc1 | -13 |
| COc1ccc(C(C)=O)cc1Cn1cnc2c(cnn2C)c1=O | 10 |
| Cc1[nH]nc(SCC(=O)NC2CCCCC2)c1[N+](=O)[O-] | 13 |
| Cc1ccc2c(c1)C(c1ccc(F)cc1)N(C(=O)c1cc3ccccc3oc1=O)CC(=O)N2 (centres unmarked) | -55 |
| O=C(CCNS(=O)(=O)c1ccc(Br)s1)N1CCCCC1 | 4.95 |
| CCN(CC)S(=O)(=O)c1ccc(C(=O)NCc2nnc(SCC(=O)OC)n2C)cc1 | -1.87 |
| COc1ccc(C)cc1-n1nnnc1SCC(=O)Nc1cccnc1Cl | -16.2 |
| Cc1ccc2cccc(OCC(=O)N(C)CC(=O)Nc3ccc(F)cc3)c2n1 | 8.32 |

| Compound | hERG current change (%, negative = inhibition) at 10uM [%] |
| --- | --- |
| Cc1cc(C)cc(OCC(=O)OCC(=O)NCc2ccco2)c1 | 4.8 |
| Cn1c2ccccc2c2c(C(=O)NCc3ccco3)cn(C3CCCCC3)c(=O)c21 | -33.4 |
| CCc1ccnc(NS(=O)(=O)c2ccc3c(c2)CCO3)c1 | 18.7 |
| Nc1cc(OC(=O)c2ccc(F)cc2)nn1S(=O)(=O)c1ccc(F)cc1 | 20 |
| COc1ccccc1-c1nc(SC)n[nH]1 | -16.3 |
| O=C(O)C1=C(OCc2ccccc2)C(=O)NCC1 | 20.3 |
| COc1cc(/C=N/NC(=O)c2ccccn2)cc2c1OCO2 | -10.2 |
| COc1cc(C#N)c(N=C(SCC#N)N2CCOCC2)cc1OC | 7.99 |
| Clc1ccc(-c2csc(N3CCCCCC3)n2)cc1 | 12.1 |
| Cc1ccc(C)c(NC(=O)CN(C)C(=O)c2ccc3c(=O)n4c(nc3c2)CCC4)c1 | -4.83 |
| COCCN(C(=O)COC(=O)c1cc(C)oc1C)c1c(N)n(Cc2ccccc2)c(=O)[nH]c1=O | -2.83 |
| Cc1onc(-c2ccccc2)c1C(=O)N/N=C/c1cc2c(cc1Cl)OCO2 | -0.765 |
| CN(C)c1ccccc1C(=O)N1CCC(n2nccc2NC(=O)C2CC2)CC1 | 15.7 |
| COc1ccccc1CNC(=O)COC(=O)C1CCN(S(=O)(=O)c2ccccc2)CC1 | -26.9 |
| O=C(Cn1cnc2c(cnn2-c2ccccc2)c1=O)OCc1ccccc1 | 14.9 |
| CSCCC(NC(=O)COc1ccccc1)C(=O)N1CCN(C(C)=O)CC1 (centres unmarked) | -5.67 |
| CC(C(=O)NCC1CCCCC1)N(C)CC(=O)Nc1ccc(N2CCOCC2)cc1 (centres unmarked) | 4.48 |
| COc1ccc(/C(O)=C2/C(=O)C(=O)N(Cc3cccnc3)C2c2ccccn2)cc1 (centres unmarked) | 4.12 |
| COC(=O)N1C(=O)[C@@](Cc2ccccc2)(c2ccccc2)N1C(=O)OC | 11.8 |
| COc1cc(OC)c2c(C)cc(=O)oc2c1C(CCN1CCOCC1)c1ccc(N(C)C)cc1 (centres unmarked) | -28.5 |
| CCOC(=O)COc1ccc2c(c1)c(C(C)=O)c(C)n2Cc1ccccc1 | -40.7 |

| Compound | hERG current change (%, negative = inhibition) at 10uM [%] |
| --- | --- |
| Cc1ccsc1CNn1cnnc1SCc1ccccc1F | -3.67 |
| CN(C)CC#CCC(O)(c1ccccc1)C1CCCC1.Cl (centres unmarked) | -21.4 |
| O=C(OCc1nnc(-c2ccc(Cl)cc2)o1)c1ccc(O)cc1 | 11.8 |
| Cc1ccc(NC(=O)Cn2nc(C)c(S(=O)(=O)N(C)C)c2C)cc1 | 40.5 |
| CC1(C)CNC(=O)CC(C)(C)N1O | -12.6 |
| COc1ccc(-c2nc(NC(=O)C3CCN(c4nc5ccccc5o4)CC3)sc2C)cc1 | 4.03 |
| COc1ccc(Cc2nnc(NC(=O)c3cc(OC)c(OC)c(OC)c3)s2)cc1OC | -5.88 |
| CCOc1cc(C)c(C(C)C)cc1S(=O)(=O)N1CCN(C)CC1 | -11.5 |
| CNC(=O)c1sc(N2N=C3/C(=C/c4ccccc4)CCCC3C2c2ccccc2)nc1C (centres unmarked) | 8.73 |
| CC(C)OC(=O)CC12CN(C)CC(CC(=O)OC(C)C)(CN(C)C1)C2=O | 1.92 |
| Cc1ccc(-c2cn3cccnc3n2)cc1NC(=O)c1c(-c2ccccc2Cl)noc1C | -7.9 |
| CCN(CC)C(=O)Cn1cnc2sc(C(=O)N3CCN(Cc4ccc5c(c4)OCO5)CC3)c(C)c2c1=O | -19.5 |
| C/C=C(\C)C(=O)N[C@@H](c1ccccc1)[C@@H](O)C(=O)O[C@H]1C[C@@]2(O)[C@@H](OC(=O)c3ccccc3)C3[C@](C)(C(=O)[C@H](OC(C)=O)C(=C1C)C2(C)C)[C@H](O)C[C@H]1OC[C@@]31OC(C)=O (some centres unmarked) | 10.7 |
| COc1ccc(OC)c(CN2CCN(C(=O)c3cccc4ccccc34)CC2)c1.O=C(O)C(=O)O | -2.37 |
| CCN1C(=O)[C@H]2[C@@H](c3ccc(-c4ccccc4)cc3)N[C@@](CC(C)C)(C(=O)OC)[C@H]2C1=O.O=C(O)C(F)(F)F | 6.29 |
| CC1(C)Cc2nc(NCCCO)c(C#N)cc2CO1 | 8.61 |
| O=C(O)c1cc(-c2ccccc2Cl)n(-c2cccc(Cl)c2)n1 | 6.64 |
| Cc1cc(C)n(/C(=C\N(C)C)C(=O)c2ccc(Cl)cc2)n1 | 26.8 |
| O=C1CC(c2ccccc2Cl)C2=C(COC2=O)N1 (centres unmarked) | -6.11 |
| CN(CC(=O)Nc1n[nH]c(=S)s1)S(=O)(=O)c1cccc2cccnc12 | 7.52 |
| CCCCC(=O)NC(c1cccs1)c1cc(Cl)c2cccnc2c1O (centres unmarked) | -17.6 |

| Compound | hERG current change (%, negative = inhibition) at 10uM [%] |
| --- | --- |
| Cc1cccc(C)c1N(CC(=O)N1CCCC1)S(C)(=O)=O | 17 |
| CN(C(=O)c1ccccc1-c1ccccc1C(=O)O)c1ccccc1 | 10.8 |
| COc1ccc(C(=O)NNC(=S)NC(=O)c2ccccc2[N+](=O)[O-])cc1 | 17.1 |
| CC1CCCCC1NC(=O)COC(=O)c1ccccn1 (centres unmarked) | 2.49 |
| O=C(NC(Cc1ccccc1)C(=O)O)/C(=C\c1ccccc1)NC(=O)c1ccc(Br)o1 (centres unmarked) | 2.51 |
| CCOC(=O)N1CCN(C(=O)c2ccc(S(=O)(=O)NCc3ccco3)cc2)CC1 | -2 |
| CCSc1ccc([C@@H]2[C@@H]3C(=O)N(CC)C(=O)[C@@H]3[C@]3(C(=O)OC)CCCCN23)cc1OC.O=C(O)C(F)(F)F | -6.79 |
| CCOc1ccc(NC(=O)N[C@@H](CCSC)C(=O)OC)cc1 | 5.52 |
| Cc1nn(C)cc1C(C(=O)NC1CCCCC1)N(CCc1ccccc1)C(=O)c1cnccn1 (centres unmarked) | -25.4 |
| COc1ccc(-c2ccc(C#N)c(SCC(=O)NCCc3ccccc3)n2)cc1OC | 18.2 |
| CCCn1cc(SCC(=O)Nc2ccc3c(c2)OCO3)c2ccccc21 | -2.42 |
| Clc1ccc(-c2csc(N3CCSCC3)n2)cc1 | 11.5 |
| COc1cc(/C=C2/SC(=S)N(CCC(=O)Nc3ccccc3)C2=O)cc(OC)c1OC | 13.8 |
| O=C(OC(C(=O)NCc1ccccc1)c1ccccc1F)c1ccco1 (centres unmarked) | -4.55 |
| O=C(Nc1nnc(SCc2ccc(F)cc2)s1)C1CC(=O)N(c2ccc3c(c2)OCCO3)C1 (centres unmarked) | 14.5 |
| COc1ccccc1N1CCN(C2CCN(C(=O)COc3cccc(C)c3)CC2)CC1.O=C(O)C(=O)O | -67.8 |
| CCOc1ccc(NC(=O)CN2CCN(CC(=O)Nc3ccc(Cl)c(C(F)(F)F)c3)CC2)cc1 | -57 |
| CCNc1nc(SC(C)C(=O)Nc2ccccc2)nc(N2CCOCC2)n1 (centres unmarked) | -1.81 |
| Cc1ccc(CNC(=O)CCc2nc(-c3cccs3)no2)cc1 | -20.7 |
| COc1ccc(-c2nn(-c3ccccc3)cc2/C=N/O)cc1OC | -4.66 |
